Results as given in paper PMC2808332.
These are yes or no findings as the source states them, for the method shown. Some binding calls cover weakened binding; strength is not graded here.

Key:
Test in all cases: peptide or protein array; Invitrogen Protoarray v4.0, about 8,400 human proteins spotted on nitrocellulose-coated glass slides; 10 µg biotinylated tag-free NEMO in 120 µl probing buffer (PBS, 0.5 mM DTT, 5 mM MgCl2, 5% glycerol, 0.05% Triton X-100), 4°C, 1.5 h; bound NEMO detected with labelled streptavidin; hits Z-score > 3, hits of the biotin-GST control array subtracted; both purified
[1] = molecular target: T1, Chromosome 19 open reading frame 57 (human) (UniProt Q0VDD7)
T1 sequence: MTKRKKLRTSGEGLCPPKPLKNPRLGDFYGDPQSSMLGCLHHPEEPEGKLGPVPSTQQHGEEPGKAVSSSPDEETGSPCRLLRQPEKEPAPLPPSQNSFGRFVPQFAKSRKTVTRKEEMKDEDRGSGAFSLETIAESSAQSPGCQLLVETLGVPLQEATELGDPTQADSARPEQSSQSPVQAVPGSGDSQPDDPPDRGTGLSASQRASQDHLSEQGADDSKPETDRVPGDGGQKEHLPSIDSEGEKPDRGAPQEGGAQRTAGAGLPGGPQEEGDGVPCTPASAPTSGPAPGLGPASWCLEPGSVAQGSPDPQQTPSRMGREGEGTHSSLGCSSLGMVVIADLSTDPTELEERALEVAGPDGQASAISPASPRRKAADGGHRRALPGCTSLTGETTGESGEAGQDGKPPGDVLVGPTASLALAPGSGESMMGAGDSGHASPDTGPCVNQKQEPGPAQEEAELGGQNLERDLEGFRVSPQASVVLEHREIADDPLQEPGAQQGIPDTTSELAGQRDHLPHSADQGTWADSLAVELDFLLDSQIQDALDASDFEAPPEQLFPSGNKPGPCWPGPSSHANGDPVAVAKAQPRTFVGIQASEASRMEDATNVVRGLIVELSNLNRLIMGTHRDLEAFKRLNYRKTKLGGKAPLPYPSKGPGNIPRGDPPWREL

[2] = molecular target: T2, Minichromosome maintenance complex component 10 (human) (UniProt Q7L590)
T2 sequence: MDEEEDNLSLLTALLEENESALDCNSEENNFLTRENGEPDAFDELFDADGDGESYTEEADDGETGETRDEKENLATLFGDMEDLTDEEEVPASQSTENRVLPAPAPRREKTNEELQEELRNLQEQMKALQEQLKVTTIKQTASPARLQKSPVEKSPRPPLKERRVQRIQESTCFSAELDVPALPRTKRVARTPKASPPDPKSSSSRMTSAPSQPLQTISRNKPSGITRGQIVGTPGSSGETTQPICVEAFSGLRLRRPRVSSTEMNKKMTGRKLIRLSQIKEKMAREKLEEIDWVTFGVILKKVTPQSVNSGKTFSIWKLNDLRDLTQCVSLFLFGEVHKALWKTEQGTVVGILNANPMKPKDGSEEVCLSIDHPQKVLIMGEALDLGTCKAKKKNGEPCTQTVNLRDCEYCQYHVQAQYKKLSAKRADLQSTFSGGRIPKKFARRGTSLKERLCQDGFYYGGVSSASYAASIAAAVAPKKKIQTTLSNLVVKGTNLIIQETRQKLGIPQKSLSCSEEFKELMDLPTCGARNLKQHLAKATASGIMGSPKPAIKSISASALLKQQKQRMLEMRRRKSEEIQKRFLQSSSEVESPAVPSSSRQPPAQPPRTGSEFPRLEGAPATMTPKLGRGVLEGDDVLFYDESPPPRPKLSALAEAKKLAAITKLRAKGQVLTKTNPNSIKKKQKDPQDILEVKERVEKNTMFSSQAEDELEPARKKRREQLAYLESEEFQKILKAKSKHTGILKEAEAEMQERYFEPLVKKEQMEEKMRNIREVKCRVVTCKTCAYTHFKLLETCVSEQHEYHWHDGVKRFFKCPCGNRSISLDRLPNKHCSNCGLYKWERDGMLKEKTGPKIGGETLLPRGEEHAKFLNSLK

[3] = molecular target: T3, N-terminal EF-hand calcium binding protein 3 (human) (UniProt Q96P71)
T3 sequence: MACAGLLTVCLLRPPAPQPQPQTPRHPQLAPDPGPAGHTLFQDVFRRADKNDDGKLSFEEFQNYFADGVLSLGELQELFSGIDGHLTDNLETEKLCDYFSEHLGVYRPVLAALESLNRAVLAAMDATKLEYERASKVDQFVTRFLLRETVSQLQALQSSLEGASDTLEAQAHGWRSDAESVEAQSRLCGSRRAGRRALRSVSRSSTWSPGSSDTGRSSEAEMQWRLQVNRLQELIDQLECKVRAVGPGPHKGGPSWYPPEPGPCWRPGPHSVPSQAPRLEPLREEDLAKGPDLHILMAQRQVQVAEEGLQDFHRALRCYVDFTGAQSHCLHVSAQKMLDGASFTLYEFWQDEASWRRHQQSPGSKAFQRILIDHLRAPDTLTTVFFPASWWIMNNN

Measured: binding

NEMO (NF-κB essential modulator), tag-free, biotinylated (from UniProt Q9Y6K9 1-419)
binds: all assays above
